Laboratory results from PubChem BioAssay (NCATS).
Several values for one entry are separate records, joined by “and”; a condition that tells them apart may be missing. Identical values can stand only once. This list was built around the results that the source calls inconclusive (neither active nor inactive); the mix of calls is not that of the screen. For some of these results: Potencies beside an inconclusive call are fits to weak or partial responses and may not hold up. Activity calls are given as the source filed them. Unless noted, calls come from the whole dose curve; as a rule, active = well fitted curve in the direction sought with a large enough effect in the repeat runs; inconclusive = weak or mixed curves; inactive = no such curve, though single readings can be large; an effect the other way counts as inactive or inconclusive.

Key:
[1] = biological target: Cytochrome P450 2C9 (Homo sapiens) (UniProt P11712); test: Cytochrome P450 family 2 subfamily C member 9 (CYP2C9) small molecule antagonists: luciferase biochemical (cell-free) qHTS assay (AID 1645842); note: nearly all actives have a fitted effect of over 55% in size; for activity change, negative = inhibition: series mostly up to about 57 µM; % is set by controls: 0 for no effect and ±100 for the full control effect
Summary of the method: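 P450-Glo CYP2C9 system: proluciferin substrate with enzyme in mix containing 0.4% BSA, 10 min at room temperature, then NADPH regeneration solution added and incubated 1 h at 37C. Detection reagent stopped reaction; luminescence read after 20 min as RLU.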

Papain (Carica papaya) = Papain (Carica papaya) (UniProt P00784); test: Primary qHTS assay for inhibitors of the protease papain (AID 1645873; active = well fitted curve in the direction sought with a large enough effect; inconclusive = small, poorly fitted or top-dose-only effect, or another doubt; inactive = no such curve, though single readings can be large; an effect the other way counts as inactive or inconclusive;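 note: papain turnover of Z-FR-AMC read as the AMC fluorescence gain over 10 min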)
[2] = Primary qHTS for inhibitors of nuclear receptor binding SET domain protein 2 (NSD2) in an isogenic RCH-ACV NSD2 p.E1099K mutant (9B) (AID 1645876; active = well fitted curve in the direction sought with a large enough effect; inconclusive = small, poorly fitted or top-dose-only effect, or another doubt; inactive = no such curve, though single readings can be large; an effect the other way counts as inactive or inconclusive; note: nearly all actives have a fitted effect of over 70% in size)
[3] = Primary qHTS for inhibitors of nuclear receptor binding SET domain protein 2 (NSD2) in an RCH-ACV wild type WT cells (2C) (AID 1645877; active = well fitted curve in the direction sought with a large enough effect; inconclusive = small, poorly fitted or top-dose-only effect, or another doubt; inactive = no such curve, though single readings can be large; an effect the other way counts as inactive or inconclusive; note: nearly all actives have a fitted effect of over 70% in size)
[4] = biological target: Rap guanine nucleotide exchange factor 3 (Homo sapiens) (UniProt O95398); test: Confirmatory qHTS for agonist of cAMP-regulated guanine nucleotide exchange factor 3 (EPAC1) (AID 1645881; active = well fitted curve in the direction sought with a large enough effect; inconclusive = small, poorly fitted or top-dose-only effect, or another doubt; inactive = no such curve, though single readings can be large; an effect the other way counts as inactive or inconclusive; note: nearly all actives have a fitted effect of over 75% in size)
[5] = biological target: Rap guanine nucleotide exchange factor 4 (Homo sapiens) (UniProt Q8WZA2); test: Confirmatory qHTS for agonist of cAMP-regulated guanine nucleotide exchange factor 4 (EPAC2) (AID 1645884; active = well fitted curve in the direction sought with a large enough effect; inconclusive = small, poorly fitted or top-dose-only effect, or another doubt; inactive = no such curve, though single readings can be large; an effect the other way counts as inactive or inconclusive;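 note: nucleotide exchange releases bodipy-GDP from Rap1 and this lowers its fluorescence; nearly all actives have a fitted effect of over 65% in size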); details: EPAC2 GEF activity, Rap1B-BODIPY-GDP fluorescence
Potency is the fitted concentration of half-maximal effect; tags give direction and shape of the fitted curve.

Chain of UniProt P11712 (P11712 whole entry, looked up): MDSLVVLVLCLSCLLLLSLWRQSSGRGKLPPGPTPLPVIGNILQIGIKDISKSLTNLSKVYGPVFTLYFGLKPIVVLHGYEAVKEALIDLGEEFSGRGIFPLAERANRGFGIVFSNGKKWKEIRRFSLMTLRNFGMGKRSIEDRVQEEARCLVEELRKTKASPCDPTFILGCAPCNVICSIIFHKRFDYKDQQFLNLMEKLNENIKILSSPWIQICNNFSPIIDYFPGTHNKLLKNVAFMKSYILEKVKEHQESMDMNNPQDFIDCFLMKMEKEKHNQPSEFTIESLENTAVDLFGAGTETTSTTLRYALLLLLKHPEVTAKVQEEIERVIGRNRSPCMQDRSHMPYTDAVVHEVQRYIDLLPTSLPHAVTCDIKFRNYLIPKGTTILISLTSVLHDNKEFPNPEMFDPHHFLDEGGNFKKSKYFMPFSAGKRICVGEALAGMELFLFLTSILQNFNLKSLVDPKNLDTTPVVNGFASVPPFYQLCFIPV
Chain of UniProt Q8WZA2 (Q8WZA2 whole entry, looked up): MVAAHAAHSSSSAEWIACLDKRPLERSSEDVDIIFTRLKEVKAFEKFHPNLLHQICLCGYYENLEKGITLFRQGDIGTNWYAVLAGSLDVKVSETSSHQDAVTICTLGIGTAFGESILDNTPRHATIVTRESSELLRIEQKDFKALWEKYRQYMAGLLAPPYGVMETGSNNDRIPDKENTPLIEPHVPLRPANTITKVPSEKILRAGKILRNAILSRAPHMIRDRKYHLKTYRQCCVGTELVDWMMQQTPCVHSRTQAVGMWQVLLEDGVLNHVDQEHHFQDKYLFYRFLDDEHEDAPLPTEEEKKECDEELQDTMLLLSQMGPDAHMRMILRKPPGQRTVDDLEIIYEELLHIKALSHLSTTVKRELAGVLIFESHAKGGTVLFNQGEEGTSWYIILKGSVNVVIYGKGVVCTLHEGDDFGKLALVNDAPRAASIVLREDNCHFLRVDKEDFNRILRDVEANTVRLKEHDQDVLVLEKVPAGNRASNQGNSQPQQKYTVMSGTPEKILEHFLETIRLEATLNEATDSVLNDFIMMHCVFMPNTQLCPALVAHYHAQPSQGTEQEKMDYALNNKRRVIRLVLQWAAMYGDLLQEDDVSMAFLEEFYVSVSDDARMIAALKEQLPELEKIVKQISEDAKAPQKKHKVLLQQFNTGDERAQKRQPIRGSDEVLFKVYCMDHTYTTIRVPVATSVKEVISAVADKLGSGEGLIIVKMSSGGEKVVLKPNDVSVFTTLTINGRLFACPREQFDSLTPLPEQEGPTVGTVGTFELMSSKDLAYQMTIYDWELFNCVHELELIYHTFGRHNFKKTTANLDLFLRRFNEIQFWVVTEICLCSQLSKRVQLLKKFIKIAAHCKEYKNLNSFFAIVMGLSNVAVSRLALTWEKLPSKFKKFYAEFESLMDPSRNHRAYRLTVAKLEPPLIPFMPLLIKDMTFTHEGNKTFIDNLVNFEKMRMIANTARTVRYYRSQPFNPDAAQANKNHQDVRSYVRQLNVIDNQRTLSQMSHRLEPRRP
Chain of UniProt P00784 (P00784 whole entry, looked up, the tested form may be a part): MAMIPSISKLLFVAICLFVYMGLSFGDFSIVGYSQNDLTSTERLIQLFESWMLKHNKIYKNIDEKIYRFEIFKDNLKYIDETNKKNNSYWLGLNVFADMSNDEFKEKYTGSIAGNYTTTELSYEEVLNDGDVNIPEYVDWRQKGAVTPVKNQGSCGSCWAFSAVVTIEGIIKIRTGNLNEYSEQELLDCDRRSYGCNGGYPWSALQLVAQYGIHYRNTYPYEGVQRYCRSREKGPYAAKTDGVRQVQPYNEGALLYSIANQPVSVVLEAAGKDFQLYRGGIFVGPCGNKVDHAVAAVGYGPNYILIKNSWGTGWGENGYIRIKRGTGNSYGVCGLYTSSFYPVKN
Chain of UniProt O95398 (O95398 whole entry, looked up): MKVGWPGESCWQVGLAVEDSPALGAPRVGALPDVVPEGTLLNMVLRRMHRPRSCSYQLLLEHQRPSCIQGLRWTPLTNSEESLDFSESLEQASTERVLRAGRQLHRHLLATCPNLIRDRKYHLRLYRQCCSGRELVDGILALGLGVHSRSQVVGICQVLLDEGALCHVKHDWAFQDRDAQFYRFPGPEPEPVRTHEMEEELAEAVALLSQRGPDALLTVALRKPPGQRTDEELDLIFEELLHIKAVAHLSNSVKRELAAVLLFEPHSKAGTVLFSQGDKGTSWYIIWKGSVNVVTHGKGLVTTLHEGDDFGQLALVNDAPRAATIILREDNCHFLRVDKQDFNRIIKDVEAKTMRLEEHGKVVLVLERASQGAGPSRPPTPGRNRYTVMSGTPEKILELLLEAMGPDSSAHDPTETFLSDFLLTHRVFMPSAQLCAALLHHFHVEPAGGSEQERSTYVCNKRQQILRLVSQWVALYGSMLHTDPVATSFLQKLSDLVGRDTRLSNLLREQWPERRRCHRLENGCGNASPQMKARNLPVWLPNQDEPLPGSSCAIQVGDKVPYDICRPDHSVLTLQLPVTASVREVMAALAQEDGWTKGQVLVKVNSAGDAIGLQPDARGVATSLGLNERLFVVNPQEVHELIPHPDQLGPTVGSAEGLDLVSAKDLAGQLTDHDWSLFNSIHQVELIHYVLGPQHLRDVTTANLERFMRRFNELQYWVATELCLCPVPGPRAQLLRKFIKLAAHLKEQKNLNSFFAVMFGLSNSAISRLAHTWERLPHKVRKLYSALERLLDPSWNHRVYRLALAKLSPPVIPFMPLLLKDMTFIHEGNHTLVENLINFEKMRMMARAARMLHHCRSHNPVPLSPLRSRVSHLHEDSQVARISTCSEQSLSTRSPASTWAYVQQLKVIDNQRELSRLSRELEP

SMILES: CCN(CC)CCCC(C)Nc1c2ccc(Cl)cc2nc2ccc(OC)cc12 (stereo unspecified)
- Potency [1]: inactive
- Potency (Papain (Carica papaya)): active: 17.8 µM
- Potency [2]: inconclusive: 14.2 µM [inhibitor, single point]
- Potency [3]: active: 5.25 µM and inconclusive: 7.96 µM [inhibitor, single point]
- Potency [4]: inconclusive: 28.1 µM [activator, partial curve]
- Potency [5]: inconclusive: 88.9 µM [activator, partial curve, poor fit] and inconclusive: 39.7 µM [activator, partial curve]

SMILES: Nc1ccc(C(=O)Oc2ccccc2)c(O)c1
- Potency [1]: inconclusive: 38.9 µM [inhibitor, single point]
- Potency [2]: inactive

SMILES: COC(=O)Nc1nc2ccc(C(=O)C3CC3)cc2[nH]1
- Potency [1]: inactive

SMILES: O=C(O)CN(CCOCCOCCN(CC(=O)O)CC(=O)O)CC(=O)O
- activity change, negative = inhibition [1]: inactive: 9.82% [at 0.91 µM]

SMILES: CC1=NS(=O)(=O)c2cc(Cl)ccc2N1
- Potency [1]: inactive

SMILES: O=C(OCc1ccccc1)c1ccccc1
- Potency [1]: inactive

SMILES: CC(C)C[C@@H](C(=O)N[C@H](C(=O)OC1CCCC1)c1ccccc1)[C@H](O)C(=O)NO
- Potency [1]: active: 5.35 µM

SMILES: Cc1ccc(S(=O)(=O)NC(=O)NC2CCCCC2)cc1
- Potency [1]: inconclusive: 19.5 µM [inhibitor, partial curve, poor fit]

SMILES: Nc1nc2ccc([N+](=O)[O-])cc2s1
- Potency [1]: inconclusive: 39.9 µM [inhibitor, single point]

SMILES: O=C(Nc1ccc(C(=O)O)c(O)c1)c1ccccc1
- Potency [1]: inconclusive: 30.9 µM [inhibitor, single point]
